# From US20250243260A1 (ALPINE IMMUNE SCIENCES, published 2025)
# Target: CD28 on Jurkat/IL2-reporter cells (UniProt P10747 19-220, limits assumed)
# Test: cell-based or functional assay
Binder,Fold Increase over WT at 50 nM [fold],Rel. Luminescence Units (RLU) 2 nM [RLU],Rel. Luminescence Units (RLU) 10 nM [RLU],Rel. Luminescence Units (RLU) 50 nM [RLU],Rel. Luminescence Units (RLU) 250 nM [RLU]
"CD80_210 variant CD80 IgV-Fc (E7N, E35D, F59S) (Fc fusion) VIHVTKNVKEVATLSCGHNVSVEELAQTRIYWQKDKKMVLTMMSGDMNIWPEYKNRTISDITNNLSIVILALRPSDEGTYECVVLKYEKDAFKREHLAEVTLSVKADGSGGGGS[omitted - human IgG4 Fc with S228P (EU numbers)]",0.96,2580,2330,2340,2300
"CD80_211 variant CD80 IgV-Fc (V11Y, T28R, E35G, M47L, A71G) (Fc fusion) VIHVTKEVKEYATLSCGHNVSVEELAQRRIYWQKGKKMVLTMMSGDLNIWPEYKNRTIFDITNNLSIVILGLRPSDEGTYECVVLKYEKDAFKREHLAEVTLSVKADGSGGGGS[omitted - human IgG4 Fc with S228P (EU numbers)]",2.73,2740,3250,6660,11200
"CD80_166 variant CD80 IgV-Fc (V11Y, M47V, L85E) (Fc fusion) VIHVTKEVKEYATLSCGHNVSVEELAQTRIYWQKEKKMVLTMMSGDVNIWPEYKNRTIFDITNNLSIVILALRPSDEGTYECVVEKYEKDAFKREHLAEVTLSVKADGSGGGGS[omitted - human IgG4 Fc with S228P (EU numbers)]",1.03,2620,2460,2510,2670
"CD80_212 variant CD80 IgV-Fc (K9R, E10A, E35G, V68T, T101K) (Fc fusion) VIHVTKEVRAVATLSCGHNVSVEELAQTRIYWQKGKKMVLTMMSGDMNIWPEYKNRTIFDITNNLSITILALRPSDEGTYECVVLKYEKDAFKREHLAEVKLSVKADGSGGGGS[omitted - human IgG4 Fc with S228P (EU numbers)]",1.28,2700,2630,3130,6530
"CD80_213 variant CD80 IgV-Fc (V11Y, V68T) (Fc fusion) VIHVTKEVKEYATLSCGHNVSVEELAQTRIYWQKEKKMVLTMMSGDMNIWPEYKNRTIFDITNNLSITILALRPSDEGTYECVVLKYEKDAFKREHLAEVTLSVKADGSGGGGS[omitted - human IgG4 Fc with S228P (EU numbers)]",2.44,3120,4110,5960,9250
"CD80_214 variant CD80 IgV-Fc (E10G, E35G, D46E, M47V, V68M, T101K) (Fc fusion) VIHVTKEVKGVATLSCGHNVSVEELAQTRIYWQKGKKMVLTMMSGEVNIWPEYKNRTIFDITNNLSIMILALRPSDEGTYECVVLKYEKDAFKREHLAEVKLSVKADGSGGGGS[omitted - human IgG4 Fc with S228P (EU numbers)]",3.78,5090,6700,9220,13900
"CD80_215 variant CD80 IgV-Fc (K9R, E10A, E35G, V68L, L85E) (Fc fusion) VIHVTKEVRAVATLSCGHNVSVEELAQTRIYWQKGKKMVLTMMSGDMNIWPEYKNRTIFDITNNLSILILALRPSDEGTYECVVEKYEKDAFKREHLAEVTLSVKADGSGGGGS[omitted - human IgG4 Fc with S228P (EU numbers)]",2.2,2690,3640,5370,6560
"CD80_216 variant CD80 IgV-Fc (V11W, T28Y, D46V, R73E, F92L) (Fc fusion) VIHVTKEVKEWATLSCGHNVSVEELAQYRIYWQKEKKMVLTMMSGVMNIWPEYKNRTIFDITNNLSIVILALEPSDEGTYECVVLKYEKDALKREHLAEVTLSVKADGSGGGGS[omitted - human IgG4 Fc with S228P (EU numbers)]",1.04,2420,2350,2540,3780
"CD80_217 variant CD80 IgV-Fc (K9N, E10G, Y87K, T101Q) (Fc fusion) VIHVTKEVNGVATLSCGHNVSVEELAQTRIYWQKEKKMVLTMMSGDMNIWPEYKNRTIFDITNNLSIVILALRPSDEGTYECVVLKKEKDAFKREHLAEVQLSVKADGSGGGGS[omitted - human IgG4 Fc with S228P (EU numbers)]",1.75,2360,2660,4260,8330
"CD80-218 variant CD80 IgV-Fc (V11W, T28Y, D46V, V68T, R73T, Y87N) (Fc fusion) VIHVTKEVKEWATLSCGHNVSVEELAQYRIYWQKEKKMVLTMMSGVMNIWPEYKNRTIFDITNNLSITILALTPSDEGTYECVVLKNEKDAFKREHLAEVTLSVKADGSGGGGS[omitted - human IgG4 Fc with S228P (EU numbers)]",1.09,2240,2220,2650,3780
"CD80-219 variant CD80 IgV-Fc (E10S, V11Y, M42R, A71V) (Fc fusion) VIHVTKEVKSYATLSCGHNVSVEELAQTRIYWQKEKKMVLTRMSGDMNIWPEYKNRTIFDITNNLSIVILVLRPSDEGTYECVVLKYEKDAFKREHLAEVTLSVKADGSGGGGS[omitted - human IgG4 Fc with S228P (EU numbers)]",1.06,2190,2440,2580,3880
"CD80-220 variant CD80 IgV-Fc (H18F, T28V, M47L, V68S) (Fc fusion) VIHVTKEVKEVATLSCGFNVSVEELAQVRIYWQKEKKMVLTMMSGDLNIWPEYKNRTIFDITNNLSISILALRPSDEGTYECVVLKYEKDAFKREHLAEVTLSVKADGSGGGGS[omitted - human IgG4 Fc with S228P (EU numbers)]",1.01,2360,2320,2470,3290
"CD80_221 variant CD80 IgV-Fc (E10G, A26S, T28Y) (Fc fusion) VIHVTKEVKGVATLSCGHNVSVEELSQYRIYWQKEKKMVLTMMSGDMNIWPEYKNRTIFDITNNLSIVILALRPSDEGTYECVVLKYEKDAFKREHLAEVTLSVKADGSGGGGS[omitted - human IgG4 Fc with S228P (EU numbers)]",1.61,2540,2950,3930,8710
"CD80_167 variant CD80 IgV-Fc (V11Y, M42I, M47V, A71G) (Fc fusion) VIHVTKEVKEYATLSCGHNVSVEELAQTRIYWQKEKKMVLTIMSGDVNIWPEYKNRTIFDITNNLSIVILGLRPSDEGTYECVVLKYEKDAFKREHLAEVTLSVKADGSGGGGS[omitted - human IgG4 Fc with S228P (EU numbers)]",1.07,2330,2670,2620,2870
"CD80_222 variant CD80 IgV-Fc (E35D, D46Q, L85E) (Fc fusion) VIHVTKEVKEVATLSCGHNVSVEELAQTRIYWQKDKKMVLTMMSGQMNIWPEYKNRTIFDITNNLSIVILALRPSDEGTYECVVEKYEKDAFKREHLAEVTLSVKADGSGGGGS[omitted - human IgG4 Fc with S228P (EU numbers)]",1.05,2650,2590,2560,3730
"CD80_223 variant CD80 IgV-Fc (E10S, V68M, Y87P) (Fc fusion) VIHVTKEVKSVATLSCGHNVSVEELAQTRIYWQKEKKMVLTMMSGDMNIWPEYKNRTIFDITNNLSIMILALRPSDEGTYECVVLKPEKDAFKREHLAEVTLSVKADGSGGGGS[omitted - human IgG4 Fc with S228P (EU numbers)]",1.08,2360,2750,2630,2980
"CD80_224 variant CD80 IgV-Fc (K9N, V11W, M47L, V68T, R73T, Y87N) (Fc fusion) VIHVTKEVNEWATLSCGHNVSVEELAQTRIYWQKEKKMVLTMMSGDLNIWPEYKNRTIFDITNNLSITILALTPSDEGTYECVVLKNEKDAFKREHLAEVTLSVKADGSGGGGS[omitted - human IgG4 Fc with S228P (EU numbers)]",3.36,3110,4170,8200,13800
"CD80_225 variant CD80 IgV-Fc (V11Y, M47L, V68T) (Fc fusion) VIHVTKEVKEYATLSCGHNVSVEELAQTRIYWQKEKKMVLTMMSGDLNIWPEYKNRTIFDITNNLSITILALRPSDEGTYECVVLKYEKDAFKREHLAEVTLSVKADGSGGGGS[omitted - human IgG4 Fc with S228P (EU numbers)]",2.41,3490,4450,5880,7660
"CD80_226 variant CD80 IgV-Fc (K9R, A26T, T28Y, E35A, M47L, A71G) (Fc fusion) VIHVTKEVREVATLSCGHNVSVEELTQYRIYWQKAKKMVLTMMSGDLNIWPEYKNRTIFDITNNLSIVILGLRPSDEGTYECVVLKYEKDAFKREHLAEVTLSVKADGSGGGGS[omitted - human IgG4 Fc with S228P (EU numbers)]",1.29,3020,3100,3150,5450
